# According to PubChem BioAssay AID1347073 (National Center for Advancing Translational Sciences (NCATS), 2019):
# The whole screen tested about 45,000 compounds, of which about 200 (0.44%) were called active. Inconclusive results (about 7%) are left out. Calls follow the shape of the dose curve; as a rule, active = well fitted activation curve with a large enough effect; inconclusive = small, poorly fitted or top-dose-only effect; inactive = no such curve, though single readings can be large or run the other way. Some of the results follow.
# Assay: qHTS of TDP-43 Inhibitors: NCGC Sytravon Library Screen; also: 0% is about no effect; nearly all actives have a fitted effect of over 55% in size
# Conditions: yeast TDP-43 toxicity rescue, BacTiter-Glo growth, 24 h; series mostly up to 46.1 µM; growth rescue (activation): at the top concentration
# Method in brief: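 TDP-43-expressing yeast, pregrown in raffinose, seeded at OD600 0.02 in galactose medium with compound for 24 hr at 30 deg C. Growth read by BacTiter-Glo luminescence, so rescue of toxicity appears as activation.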
row,Compound,growth rescue (activation)
1,COC(=O)C1CCN(C(=O)COc2ccc(S(=O)(=O)N3CCOCC3)cc2Cl)CC1,inactive: -4.29%
2,O=C(CCN1CCCCC1=O)NC1CCCN(Cc2ccc(Cl)cc2)C1 (stereo not given),inactive: 3.48%
3,Cc1ccc(NC(=O)c2ccc(OC(=O)C(C)Oc3ccc(Cl)cc3C)cc2)cc1 (stereo not given),inactive: 11.2%
4,Cc1oc2ccc(NS(=O)(=O)c3ccc(F)cc3)cc2c1C(=O)O,inactive: -1.21%
5,O=C(c1cc(-c2cccc(Cl)c2)on1)N1CCc2ccccc2C1,inactive: 5.02%
6,CCCOC1CCCN(C(=O)c2ccc(OC3CCN(C(=O)CCOC)CC3)cc2)C1 (stereo not given),inactive: 3.29%
7,CC(C)C1Cc2c(C#N)c(N)n(C)c(=S)c2CO1 (stereo not given),inactive: 16.5%
8,Cc1cc(NC(=S)Nc2cccnc2)ccc1Br,inactive: 7.41%
9,CCOC(=O)C1CCN(C(=O)CSc2n[nH]c(=O)[nH]c2=O)CC1,inactive: -9.28%
10,CC1CCN(Cc2nnnn2-c2cccc([N+](=O)[O-])c2)CC1,inactive: 22.8%
11,CC(C)C(=O)Nc1cccc(-c2cn3ccccc3n2)c1,inactive: -3.41%
12,COc1ccc(CCCC(=O)N/N=C/c2cccc(OC)c2O)cc1C,inactive: 11.2%
13,COc1ccc(/C=N/Nc2ncnc3c2[nH]c2ccccc23)c(OC)c1OC,inactive: 2.64%
14,CS(=O)(=O)N(CC(=O)NCCSCc1ccccc1)c1ccccc1Cl,inactive: 2.72%
15,CC(=O)c1ccc(OCc2cc(C(=O)N(C)C(C)c3ccon3)no2)cc1 (stereo not given),inactive: 15.6%
16,O=C(CCN1C(=O)c2cccc3cccc(c23)C1=O)NCC1CCCO1 (stereo not given),inactive: 8.63%
17,COc1cc2nc(N3CCN(c4cc(C)ccc4C)CC3)nc(N)c2cc1OC,inactive: 8.18%
18,O=C(NC1CCS(=O)(=O)C1)c1ccc(S(=O)(=O)N2CCCC2)cc1 (stereo not given),inactive: 0.748%
19,O=C(Nc1ccc2c(c1)C(=O)OC2)c1ccc(C(F)(F)F)cc1,inactive: 9.35%
20,CCCNC(=O)C1(C)CCCN(C(=O)c2sccc2C)C1 (stereo not given),inactive: -0.922%
21,O=P(COCCOCCOCCOCP(=O)(c1ccccc1)c1ccccc1)(c1ccccc1)c1ccccc1,inactive: 3.37%
22,NC1=NC(=O)CC(C(=O)Nc2cccc3ccccc23)S1 (stereo not given),inactive: -1.44%
23,COc1cccc(CN(C)C(=O)c2cc(S(=O)(=O)NC3CCCCC3)ccc2C)c1,inactive: 14.3%
24,CCN1CCN(c2ccc(S(=O)(=O)N3CCCC3)cn2)CC1,inactive: 10.7%
25,CCOC(=O)Nc1nnc(Cc2ccc(Cl)c(Cl)c2)s1,inactive: 3.54%
26,CCCn1c(SC(C)C(=O)NC2CCCC2)n[nH]c1=O (stereo not given),inactive: 15.4%
27,COCCNc1ncnc2c1ncn2[C@H]1CN(Cc2cccs2)C[C@@H](CO)O1,inactive: 2.32%
28,Cc1cc(S(=O)(=O)N2CCCC(C(=O)Nc3ccc(C(=O)O)cc3)C2)ccc1Cl (stereo not given),inactive: -8.11%
29,COc1ccc2nc(SCC(=O)NCC3CCCO3)c(C#N)cc2c1 (stereo not given),inactive: 6.92%
30,COc1ccc(-c2[nH]ncc2C(=O)NCc2cccc(Cl)c2)cc1,inactive: 23.3%
